One substance from publication PMC10112805 can be followed below.

Protein sequences, listed by entry. Tags and fused reporters are not part of them.
UniProt Q86WV6: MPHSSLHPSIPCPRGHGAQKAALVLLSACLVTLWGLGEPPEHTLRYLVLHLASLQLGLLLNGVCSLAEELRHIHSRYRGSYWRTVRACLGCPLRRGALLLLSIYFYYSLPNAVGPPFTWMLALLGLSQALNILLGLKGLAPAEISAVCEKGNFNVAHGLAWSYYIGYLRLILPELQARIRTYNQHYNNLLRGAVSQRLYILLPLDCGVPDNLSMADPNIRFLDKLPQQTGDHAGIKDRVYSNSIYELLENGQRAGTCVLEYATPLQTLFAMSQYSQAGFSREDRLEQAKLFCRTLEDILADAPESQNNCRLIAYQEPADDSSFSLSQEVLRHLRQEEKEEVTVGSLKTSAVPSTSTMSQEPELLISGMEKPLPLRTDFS

This experiment addresses T1, SELENOK-GFP (selenoprotein K with a GFP tag) (human) (UniProt Q9Y6D0).
T1 sequence: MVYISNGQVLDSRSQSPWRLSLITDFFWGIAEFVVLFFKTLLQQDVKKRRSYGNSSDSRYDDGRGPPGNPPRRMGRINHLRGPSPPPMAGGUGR
Nature of the experiment: co-IP; HEK 293T cells co-transfected with the tagged plasmids; lysed in IP lysis buffer (50 mM Tris-HCl pH 7.4, 50 mM EDTA, 150 mM NaCl, 1% NP-40); immunoprecipitation with anti-MYC, anti-GFP or anti-HA and Protein A/G PLUS-Agarose overnight at 4 °C; five washes; immunoblot. Background: In western blotting, separated proteins are transferred to a membrane and probed.

Results are given in words; binding and its absence hold for the method and conditions named. Binding seen in cells or lysates may run through a third protein. Some entries that bind do so weakly or less than the wild type. Sequences can lack the tags named with a protein.

In the case of “STING-HA (stimulator-of-interferon gene with an HA tag) (from UniProt Q86WV6 1-379)”, the binding entry is “binds”.
